In PubChem BioAssay AID1347417 (National Center for Advancing Translational Sciences (NCATS), 2020):
Several values for one entry are separate records, joined by “and”; a condition that tells them apart may be missing. Identical values can stand only once. Out of some 120,000 compounds screened, about 5,300 (4.4%) were called active. Inconclusive means that the source gave no clear call. Such entries were picked first, then a sample of the others. Calls follow the shape of the dose curve; as a rule, active = well fitted inhibition curve with a large enough effect; inconclusive = small, poorly fitted or top-dose-only effect; inactive = no such curve, though single readings can be large or run the other way. Potencies of inconclusive entries are doubtful fits and often do not repeat.

assay: qHTS Primary assay for Inhibitors of Plasmodium falciparum Dd2 growth in vitro; also: nearly all actives have a fitted effect of over 65% in size;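 as to activity, negative = inhibition: plate controls were DMSO vehicle for no effect and reference drug for full effect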; conditions: P. falciparum Dd2 growth, SYBR Green, 72 h; activity, negative = inhibition: at 28.9 µM (top of the series) unless noted; series mostly up to 28.9 µM
Outline: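 Infected erythrocytes (Dd2, 0.3% parasitemia, 2.5% hematocrit final) are added to compound in RPMI-1640/Albumax II medium, grown 72 h at 37C in low oxygen, then lysed with saponin/Triton-X containing SYBR Green and read by fluorescence.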
Potency is read from the fitted curve at half-maximal effect; tags tell the direction and shape of the fitted curve.

Question: With `COCCN(C)C[C@@H]1CN(C(=O)c2ccc(-c3ccc(C)o3)cc2)C[C@@H]1CO` as the compound, how does the Potency read?
Answer: Its Potency is “inactive”.

Question: With `O=C(NCc1ccc(N2CCOCC2)cc1)c1cccc2c1CCN2C(=O)c1ccccc1` as the compound, how does the Potency read?
Answer: The Potency was inconclusive: 10 µM [inhibitor, single point].

Question: With `O=C(NCCc1ccc(F)cc1)C1CN(c2ccc(F)cc2)C(=O)N1` (stereo not drawn) as the compound, how does the Potency read?
Answer: Its Potency is inconclusive: 12.6 µM [inhibitor, partial curve, poor fit].

Question: Which Potency does the source give for `O=C(/C=C/c1ccccc1)Nc1nc(-c2cccs2)ns1` here?
Answer: The Potency was inconclusive: 3.98 µM [inhibitor, partial curve, poor fit].

Question: Which Potency does the source give for `O=[N+]([O-])c1cccc(-c2noc([C@@H]3Cc4nc[nH]c4CN3)n2)c1` here?
Answer: Its Potency is inconclusive: 12.6 µM [inhibitor, partial curve, poor fit] and inconclusive: 6.31 µM [inhibitor, full curve, poor fit].

Question: With `N#Cc1cc2c(=O)n3ccccc3nc2n(-c2nnc(SCc3ccccc3F)s2)c1=O` as the compound, how does the Potency read?
Answer: The Potency was inconclusive: 10 µM [inhibitor, single point].

Question: For `O=C1NCc2ccccc2CC12CCN(Cc1ccc(F)c(Cl)c1)C2` (stereo not drawn), which Potency is on record?
Answer: Its Potency is inconclusive: 20 µM [inhibitor, single point].

Question: Which Potency does the source give for `COc1ccc(CNC(=O)Cn2nc3n(c2=O)CCCC3)cc1` here?
Answer: The Potency was “inactive”.

Question: With `CC(C)OC(=O)c1c(NC(=O)c2cc3nc(-c4ccccc4)cc(C(F)(F)F)n3n2)sc2c1CCCC2` as the compound, how does the Potency read?
Answer: Its Potency is inconclusive: 20 µM [inhibitor, single point].

Question: With `CCC(CC)C(=O)NC[C@@H]1C=C(C)[C@H](Cc2nc3c(C)cccc3[nH]2)C[C@H]1C(C)C` as the compound, how does the Potency read?
Answer: The Potency was inconclusive: 31.6 µM [inhibitor, single point].

Question: For `Cc1nc(N2CCC(NC(=O)C3CCC3)CC2)cc(C(F)(F)F)n1`, which Potency is on record?
Answer: The Potency was “inactive”.

Question: For `O=C(c1ccoc1)N1CCC(N2C(=O)C3(CCCC3)C2c2ccccc2)CC1` (stereo not drawn), which Potency is on record?
Answer: Its Potency is inconclusive: 8.91 µM [inhibitor, single point].

Question: For `Cc1cc(Nc2cccc(C(F)(F)F)c2)nc2ccc(NC(=O)c3cncc(Br)c3)cc12`, which Potency is on record?
Answer: The Potency was active: 0.178 µM.

Question: For `NCCc1cccc(CN2CCCC(COc3ccccc3F)C2)c1` (stereo not drawn), which Potency is on record?
Answer: The Potency was active: 2 µM.

Question: For `Cc1ccccc1NC(=O)N1CC(C(=O)N(C)C)C2(CCOCC2)C1` (stereo not drawn), which Potency is on record?
Answer: The Potency was “inactive”.

Question: With `CCOc1ccccc1N(CC)C(=O)c1cc2c(=O)n(CC)c3ccccc3c2s1` as the compound, how does the Potency read?
Answer: The Potency was inconclusive: 10 µM [inhibitor, single point].

Question: With `Cc1nnc([C@@H]2CC(F)(F)CN2C(=O)c2c(C)noc2C)o1` as the compound, how does the Potency read?
Answer: The Potency was “inactive”.

Question: Which Potency does the source give for `CCN(CCCNC(=O)c1cc(Nc2ccc(OC)cc2)nc2ccccc12)c1cccc(C)c1` here?
Answer: The Potency was inconclusive: 20 µM [inhibitor, single point].

Question: Which Potency does the source give for `Cc1ccccc1CN1C(=O)c2ccccc2Sc2ccc(C(=O)NCc3ccccc3)cc21` here?
Answer: Its Potency is inconclusive: 17.8 µM [inhibitor, single point].

Question: Which outcome does the source give for `Cc1ccc(CN2CCc3nc(N(C)Cc4cccnc4)[nH]c(=O)c3CC2)o1` here?
Answer: The outcome was “inactive [at 5.79 µM]”.

Question: For `CN(C)[C@@H]1CN(Cc2ccsc2)CC[C@@H]1CNC(=O)C1CC1`, which Potency is on record?
Answer: Its Potency is inconclusive: 4.47 µM [inhibitor, partial curve].

Question: With `COc1ccc2[nH]c(C[C@@H]3C[C@@H](C(C)C)[C@H](CN(C)C)C=C3C)nc2n1` as the compound, how does the Potency read?
Answer: The Potency was inconclusive: 3.55 µM [inhibitor, partial curve, poor fit].

Question: For `CCOc1ccc(CCNC(=O)Cn2ccc3cc(S(=O)(=O)N4CCCCC4)ccc32)cc1`, which Potency is on record?
Answer: The Potency was inconclusive: 17.8 µM [inhibitor, single point].

Question: For `COc1cccc(-c2nc3c([nH]2)CN(c2cc(C4CC4)ncn2)CC3)c1`, which Potency is on record?
Answer: Its Potency is inconclusive: 5.01 µM [inhibitor, partial curve, poor fit].

Question: Which Potency does the source give for `COC[C@@H]1CN(C(=O)Cc2cccc(OC)c2)C[C@H]1c1ccncc1` here?
Answer: The Potency was “inactive”.

Question: Which Potency does the source give for `O=C(NCc1nc2ccccc2n1Cc1ccccc1Cl)c1ccccc1` here?
Answer: The Potency was inconclusive: 10 µM [inhibitor, single point].

Question: For `COc1cccc(CCC(=O)N2CCCC(CN3CCC(C)CC3)CC2)c1` (stereo not drawn), which Potency is on record?
Answer: The Potency was inconclusive: 11.2 µM [inhibitor, partial curve, poor fit].

Question: With `COc1ccc(OCC(=O)Nc2ccc(Cl)c(-c3nc4ncccc4o3)c2)cc1` as the compound, how does the Potency read?
Answer: The Potency was active: 7.94 µM.

Question: Which Potency does the source give for `CCCC1(CO)CCCN(Cc2cnc(-c3ccccn3)nc2)C1` (stereo not drawn) here?
Answer: Its Potency is inconclusive: 12.6 µM [inhibitor, single point].

Question: For `CCN(CC)C(=O)c1ccc(NC(=O)COc2ccc(-c3nn(C)c(=O)c4ccccc34)cc2)cc1`, which Potency is on record?
Answer: The Potency was inconclusive: 17.8 µM [inhibitor, single point].

Question: With `CCOC(=O)c1ccccc1NC(=O)c1cnn(-c2ccc(OC)cc2)c1C1CCN(C(=O)OC(C)(C)C)CC1` as the compound, how does the Potency read?
Answer: Its Potency is “inactive”.

Question: For `COC(=O)c1ccccc1S(=O)(=O)N1CCC2(CCCNC2)C1` (stereo not drawn), which Potency is on record?
Answer: The Potency was inconclusive: 10 µM [inhibitor, single point].

Question: With `Cc1ccc2c(c1)c(=O)c1ccccc1n2CCCC(=O)Nc1ccc(Cl)cc1C` as the compound, how does the Potency read?
Answer: The Potency was inconclusive: 17.8 µM [inhibitor, single point].

Question: With `C[S+](=O)([O-])N1CC2(CCCN2Cc2cccnc2)Cc2ccccc21` (stereo not drawn) as the compound, how does the Potency read?
Answer: The Potency was inconclusive: 8.91 µM [inhibitor, single point].

Question: Which Potency does the source give for `CCCNC(=O)N1CCC(N2C(=O)[C@H](OCCOC)[C@@H]2c2ccncc2)CC1` here?
Answer: Its Potency is inconclusive: 1.12 µM [inhibitor, full curve].

Question: For `Cc1ccc(NC(=O)N2CCC(CCNC(=O)c3sccc3C)CC2)cc1`, which Potency is on record?
Answer: Its Potency is inconclusive: 2.51 µM [inhibitor, single point].

Question: With `COc1cc(NC(=O)C2CCN(c3nnc(C)c4c(C)n(-c5ccccc5)nc34)CC2)cc(OC)c1` as the compound, how does the Potency read?
Answer: Its Potency is “inactive”.

Question: With `CCN(C(=O)CSc1nc2ccccc2n1Cc1ccccc1C#N)c1ccccc1` as the compound, how does the Potency read?
Answer: Its Potency is inconclusive: 17.8 µM [inhibitor, single point].

Question: For `CC(C)Cc1cc(C(=O)N2CCCC(c3ccc(C(=O)O)cc3)C2)nc(=O)[nH]1` (stereo not drawn), which Potency is on record?
Answer: The Potency was “inactive”.

Question: Which Potency does the source give for `CS(=O)(=O)N1CCc2ccc(C(=O)Nc3ccc(Cl)c(C(F)(F)F)c3)cc21` here?
Answer: Its Potency is inconclusive: 10 µM [inhibitor, single point].

Question: With `CCN1c2cc(C(=O)NCc3cccc(C)c3)ccc2C(=O)N2CCCCCC21` (stereo not drawn) as the compound, how does the Potency read?
Answer: Its Potency is inconclusive: 8.91 µM [inhibitor, partial curve, poor fit].

Question: For `COc1ccc(-c2nnc(C[C@@H]3C[C@@H](C(C)C)[C@H](CNc4ccccn4)C=C3C)o2)cc1`, which Potency is on record?
Answer: Its Potency is inconclusive: 2.51 µM [inhibitor, full curve].

Question: For `CC1CCN([C@@H]2[C@H](O)[C@H](CO)O[C@@H]2CNC(=O)c2ccc(F)c(Cl)c2)CC1`, which Potency is on record?
Answer: Its Potency is inconclusive: 11.2 µM [inhibitor, partial curve, poor fit].

Question: Which Potency does the source give for `Cc1ccc(C(=O)N2CCc3nc(C)nc(-c4ccc(O)cc4)c3C2)cc1` here?
Answer: The Potency was “inactive”.

Question: Which Potency does the source give for `O=C1CN(C(=O)CCC(=O)N2CCC(CCOc3ccccc3F)C2)c2ccccc2N1` (stereo not drawn) here?
Answer: Its Potency is “inactive”.

Question: For `COc1ccc(C(=O)N2CCCn3ccnc3C2c2cnn(C)c2)cn1` (stereo not drawn), which Potency is on record?
Answer: Its Potency is “inactive”.

Question: Which Potency does the source give for `CCCCN1C(=O)[C@@H]2C[C@@H](O)CN2C2(CN(C(C)C)C2)C1=O` here?
Answer: Its Potency is “inactive”.

Question: With `Cc1cc(C(=O)N2CCCC[C@H](N(C)C)C2)c(-c2ccccc2)o1` as the compound, how does the Potency read?
Answer: Its Potency is inconclusive: 11.2 µM [inhibitor, single point].

Question: Which Potency does the source give for `CC(C)CCNC(=O)c1cnc2c(c1)N(C(=O)Cc1cn(C)c3ccccc13)CCC2` here?
Answer: Its Potency is inconclusive: 1 µM [inhibitor, full curve].

Question: Which Potency does the source give for `Cc1ccc2[nH]c(=O)c3cc(C(=O)N(CCCOC(C)C)Cc4ccco4)sc3c2c1` here?
Answer: The Potency was inconclusive: 8.91 µM [inhibitor, partial curve, poor fit].

Question: With `COc1ccc(-c2noc([C@@H]3C[C@H](NC(=O)NC(C)C)CN3C)n2)cc1` as the compound, how does the Potency read?
Answer: Its Potency is “inactive”.

Question: Which Potency does the source give for `COC(=O)c1ccc2c(=O)n3nc(Nc4cc(OC)ccc4OC)sc3nc2c1` here?
Answer: The Potency was “inactive”.

Question: Which activity, negative = inhibition does the source give for `CN(C)c1nc2c(c(=O)[nH]1)CCN(Cc1cccc(C(F)(F)F)c1)CC2` here?
Answer: The activity, negative = inhibition was inactive: -13.6% [at 5.79 µM].

Question: For `O=C(Nc1ccc(=O)n2c1[C@@H]1C[C@@H](CN(S(=O)(=O)c3ccccc3)C1)C2)c1cncnc1`, which Potency is on record?
Answer: The Potency was inconclusive: 8.91 µM [inhibitor, single point].

Question: Which Potency does the source give for `CCCn1cc(-c2ccncc2)cc1C(=O)NCc1cccc(F)c1` here?
Answer: Its Potency is inconclusive: 12.6 µM [inhibitor, single point].

Question: Which Potency does the source give for `Cc1ccccc1NC(=O)CSC1=Nc2ccccc2C2=NC(Cc3ccccc3)C(=O)N12` (stereo not drawn) here?
Answer: The Potency was inconclusive: 11.2 µM [inhibitor, single point].

Question: Which Potency does the source give for `CCn1ncc(CN2CCCC(C(=O)N3CCN(c4ccccn4)CC3)CCNC(=O)CC2)c1C` (stereo not drawn) here?
Answer: The Potency was inconclusive: 7.94 µM [inhibitor, single point].

Question: Which Potency does the source give for `CC(=O)N1Cc2ccccc2CC2(CCN(CC3CCCC3)C2)C1` (stereo not drawn) here?
Answer: Its Potency is inconclusive: 10 µM [inhibitor, partial curve, poor fit].

Question: With `Cc1ccc(C(=O)N2CCC3(CC2)CC(=O)N(c2ccccc2)c2ccccc2O3)cc1` as the compound, how does the Potency read?
Answer: Its Potency is inconclusive: 11.2 µM [inhibitor, single point].

Question: With `CN(Cc1ccccc1)c1ccc(-c2nc(-c3ccccc3)no2)cc1[N+](=O)[O-]` as the compound, how does the Potency read?
Answer: The Potency was inconclusive: 17.8 µM [inhibitor, single point].

Question: With `Cc1cc(C)c(NC(=O)C(=O)NCC(c2cccnc2)N2CCN(c3ccccc3F)CC2)c(C)c1` (stereo not drawn) as the compound, how does the Potency read?
Answer: The Potency was inconclusive: 20 µM [inhibitor, single point].

Question: Which Potency does the source give for `Cn1cc(CN2C[C@H](C(=O)Nc3nccs3)C[C@H]2c2cccc(C(F)(F)F)c2)cn1` here?
Answer: The Potency was inconclusive: 10 µM [inhibitor, partial curve, poor fit].

Question: Which Potency does the source give for `Cc1ccc(OCCC2CCN(C(=O)Cc3cccnc3)C2)cc1` (stereo not drawn) here?
Answer: The Potency was “inactive”.
